Reference: PubChem BioAssay AID1508623 (National Center for Advancing Translational Sciences (NCATS), 2021)
The campaign covered roughly 48,000 compounds. About 450 (0.94%) were called active. Inconclusive means that the source gave no clear call. Such entries were picked first, then a sample of the others. Calls follow the shape of the dose curve; as a rule, active = well fitted inhibition curve with a large enough effect; inconclusive = small, poorly fitted or top-dose-only effect; inactive = no such curve, though single readings can be large or run the other way. Where the call is inconclusive, the potency comes from a doubtful curve fit.

Assay: Primary qHTS for Identification of Small Molecule Inhibitors of Huntingtin Promoter Activity; also: nearly all actives have a fitted effect of over 50% in size
Details: HEK293 HTT promoter firefly luciferase reporter (activity 0% = vehicle and -100% = no light), 24 h; activity change, negative = inhibition: at 57.5 µM (top of the series)
Method in brief: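 HEK293 luciferase promoter-reporter cells (2,500/well) plated 24 h, then compounds added at up to 57.5 uM final for 24 h at 37 °C. Firefly luminescence by Dual-Glo, normalized to vehicle (0%) and zero RLU (-100%).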
Potency is read from the fitted curve at half-maximal effect; tags tell the direction and shape of the fitted curve.

SMILES	Potency	activity change, negative = inhibition
CCOC(=O)C1CCCN(S(=O)(=O)c2ccc3[nH]c(=O)oc3c2)C1 (stereo unspecified)	inconclusive: 31.6 µM [inhibitor, single point]	
CCc1ccccc1NC(=O)c1sc(-n2nc(C)c(Cc3ccc4c(c3)OCO4)c2C)nc1C		inactive: -6.23%
COc1ccc(-c2[nH]c3ccccc3c2SCCNC(=O)c2ccc(S(=O)(=O)N(C)C)cc2)cc1	inconclusive: 17.8 µM [inhibitor, partial curve]	
CCCCOc1ccc(CNC(=O)Cc2ccc(NC(=O)N3CCSc4ncccc43)cc2)cc1	inconclusive: 28.2 µM [inhibitor, partial curve, poor fit]	
CCNc1oc(-c2ccc(COc3ccc(Cl)cc3)o2)nc1C#N	inconclusive: 39.8 µM [inhibitor, single point]	
COc1ccc(CNC(=O)c2cc3cccc4c3n2CC(C)S4)c(OC)c1 (stereo unspecified)	inconclusive: 28.2 µM [inhibitor, partial curve]	
COc1ccc(S(=O)(=O)N2CCN(CC(=O)Nc3ccc(Cl)c(C(F)(F)F)c3)CC2)cc1	inconclusive: 22.4 µM [inhibitor, single point]	
COc1ccc2c(CNCCc3ccccc3)c(C(=O)O)n(Cc3cccc(F)c3)c2c1	inconclusive: 20 µM [inhibitor, partial curve, poor fit]	
N#CC(=C(N)Sc1ccccc1N)C(C#N)=C(N)Sc1ccccc1N	inconclusive: 27.3 µM [inhibitor, partial curve, poor fit]	
COc1ccc(N(Cc2cccs2)C(=O)COc2cc(C)c(Cl)c(C)c2)cc1	inconclusive: 39.8 µM [inhibitor, single point]	
Cc1cccc(NC(=O)Cc2ccc(-n3c(C)nc4cccnc43)cc2)c1C	inconclusive: 22.4 µM [inhibitor, partial curve]	
Cc1cc(-c2ccc(S(=O)(=O)Nc3ccc(Br)c(C)c3)s2)on1	inconclusive: 12.6 µM [inhibitor, partial curve, poor fit]	
CC(=O)c1cccc(NC(=O)c2cc3nc(-c4ccc(Br)cc4)cc(C(F)(F)F)n3n2)c1	inconclusive: 39.8 µM [inhibitor, single point]	
CCCN1C(=O)C2(c3ccccc31)c1c(oc3ccc(C)cc3c1=O)C(=O)N2CCOC (stereo unspecified)		inactive: -19.8%
O=C(Nc1ccc(Cl)cc1)Nc1ccc(Cl)c(C(F)(F)F)c1	inconclusive: 3.16 µM [inhibitor, single point]	
COc1ccc(Nc2cc(C)c3cc(NC(=O)c4cc(OC)cc(OC)c4)ccc3n2)cc1	inconclusive: 31.6 µM [inhibitor, single point]	
Cc1ccc(C)c(NC(=O)NCc2ccc3c(c2)CCN3C(=O)c2ccccc2)c1	inconclusive: 25.1 µM [inhibitor, partial curve]	
COc1cc2ncn(-c3cc(OCc4ccccc4C(F)(F)F)c(C(N)=O)s3)c2cc1OC		inactive: -29.5%
CC(C)(N)c1ccc(-c2nc3ccccc3nc2-c2ccccc2)cc1		inactive: -20.3%

SMILES	Potency	activity change, negative = inhibition
CC(=O)c1ccc(N2CCN(C(=O)c3ccc(Cn4c(=O)[nH]c5ccccc5c4=O)cc3)CC2)cc1	inconclusive: 22.4 µM [inhibitor, partial curve, poor fit]	
O=S(=O)(c1ccc2[nH]c3c(c2c1)CCCCC3)N1CCN(c2ccccc2)CC1	inconclusive: 22.4 µM [inhibitor, partial curve, poor fit]	
CC(=O)C1=C(c2ccc(Cl)c(Cl)c2)N(C(C)=O)n2c(C)nnc2S1	inconclusive: 28.2 µM [inhibitor, single point]	
Cc1cccc(C)c1NC(=O)c1oc2c(c1C)-c1nn(Cc3ccccc3)cc1CC2	inconclusive: 31.6 µM [inhibitor, single point]	
O=C(NCC(c1ccccc1)c1ccccc1)c1nn(-c2ccccc2Cl)nc1CO	inconclusive: 28.2 µM [inhibitor, partial curve, poor fit]	
Cc1nc2c(C(=O)N(C)Cc3ccccc3)c[nH]n2c(=O)c1Cc1ccc(Cl)cc1	inconclusive: 28.2 µM [inhibitor, partial curve, poor fit]	
Cc1ccc(CNC(=O)CN(c2ccc(Cl)cc2Cl)S(=O)(=O)c2ccccc2)cc1	inconclusive: 39.8 µM [inhibitor, partial curve, poor fit]	
Cc1ccc(CCNC(=O)Cn2c(-c3cccs3)cc3cc(F)ccc32)cc1		inactive: -11.7%
CCc1cccc2sc(N3CCN(C(=O)c4cc5ccccc5cc4OC)CC3)nc12	inconclusive: 39.8 µM [inhibitor, single point]	
COc1ccc(CC(=O)NCc2ccc3c(c2)CCN3C(=O)c2ccc(C)cc2)cc1OC	inconclusive: 31.6 µM [inhibitor, partial curve, poor fit]	
CN1CCN(c2ncc(-c3cc(Cl)cc(Cl)c3Cl)c(N)n2)CC1	inconclusive: 34.3 µM [inhibitor, partial curve, poor fit]	
O=C(CCc1cn(Cc2ccccc2F)c2ccccc12)NCc1ccc(Cl)cc1	inconclusive: 28.2 µM [inhibitor, single point]	
COc1ccc(-c2ccc(NS(=O)(=O)c3cccc(Cl)c3)cc2)nn1	inconclusive: 15.8 µM [inhibitor, partial curve, poor fit]	
Cc1ccccc1CNC(=O)c1ccc(Cn2c(SCc3cccc(F)c3)nc3cccnc32)cc1	inconclusive: 31.6 µM [inhibitor, single point]	
Cc1ccc(N(CC(C)C)S(=O)(=O)c2nnc(NC(=O)c3ccco3)s2)cc1	inconclusive: 28.2 µM [inhibitor, partial curve]	
CCC(=O)N1CCc2cc(S(=O)(=O)CCC(=O)Nc3ccc(Cl)c(C(F)(F)F)c3)ccc21	inconclusive: 39.8 µM [inhibitor, single point]	
Cc1ccc(NC(=O)Cn2c(=O)oc3ccccc32)cc1Cl	inconclusive: 28.2 µM [inhibitor, partial curve, poor fit]	
O=C(NCCc1ccccc1)c1ccc2c(c1)N(Cc1ccccc1)C(=O)c1ccccc1S2=O (stereo unspecified)	inconclusive: 31.6 µM [inhibitor, single point]	
CCOC(=O)CC(NC(=O)Cn1nnc(-c2ccc(C(F)(F)F)cc2)n1)c1ccccc1Cl (stereo unspecified)	inconclusive: 31.6 µM [inhibitor, single point]	

SMILES	Potency	activity change, negative = inhibition
CC(=O)Nc1cc(C(=O)NCc2ccc(F)cc2)ccc1Sc1ccc(C)cc1	inconclusive: 39.8 µM [inhibitor, single point]	
Cc1nn(-c2ccccc2)c(-n2cccc2)c1C(=O)NCc1ccccc1Cl	inconclusive: 28.2 µM [inhibitor, partial curve, poor fit]	
Cc1cc(OCC(=O)Nc2cnn(CCCC(=O)O)c2)ccc1Cl		inactive: -12.3%
O=C1CN(C(=O)c2ccc(Cl)cc2Cl)C(c2ccc(F)cc2)c2cc(F)ccc2N1 (stereo unspecified)	inconclusive: 39.8 µM [inhibitor, single point]	
O=C(NCc1cccs1)c1nn(-c2ccccc2)nc1CO	inconclusive: 15.8 µM [inhibitor, partial curve, poor fit]	
Cc1ccc(NC(=O)Cn2c(=O)n(-c3ccc(C)cc3)c(=O)c3ccc(C(=O)NCc4ccccc4Cl)cc32)cc1	inconclusive: 31.6 µM [inhibitor, single point]	
Cc1cc(C)cc(NC(=O)c2sc3nc(-c4ccccc4)cn3c2C)c1	inconclusive: 39.8 µM [inhibitor, single point]	
COc1ccc(/C=C/C(=O)Nc2ccc3nc(N4CCC(C)CC4)cc(C)c3c2)cc1OC	inconclusive: 31.6 µM [inhibitor, single point]	
COc1cccc(C2C(C(=O)Nc3ccc(Cl)cc3)=C(C)Nc3c(C(=O)Nc4ccccc4)cnn32)c1OC (stereo unspecified)	inconclusive: 31.6 µM [inhibitor, partial curve, poor fit]	
COc1ccc(S(=O)(=O)N2CCN(Cc3nc4ccc(C)cc4o3)CC2)cc1OC	inconclusive: 39.8 µM [inhibitor, partial curve, poor fit]	
Cc1c(Cl)cccc1-n1c(SCC(=O)NCc2ccccc2)nc2n[nH]c(C)c2c1=N	inconclusive: 31.6 µM [inhibitor, single point]	
Cc1ccc(C(=O)N2c3ncnn3C3(CCCCC3)[C@@H]3CCCC[C@@H]32)cc1	inconclusive: 31.6 µM [inhibitor, partial curve, poor fit]	
CS[C@H]1SC[C@@H]2C(=O)N(C)[C@H](C(C)C)C(=O)OC[C@H](NC(=O)c3cnc4ccccc4n3)C(=O)N[C@H](C)C(=O)N(C)[C@@H]1C(=O)N(C)[C@H](C(C)C)C(=O)OC[C@H](NC(=O)c1cnc3ccccc3n1)C(=O)N[C@H](C)C(=O)N2C	inconclusive: 0.0273 µM [inhibitor, full curve]	
CCc1ccccc1NS(=O)(=O)c1ccc(-c2coc(C)n2)cc1	inconclusive: 28.2 µM [inhibitor, partial curve, poor fit]	
CCC1CCCCN1S(=O)(=O)c1ccc(NC(=O)c2nc(SC)ncc2Cl)cc1 (stereo unspecified)	inconclusive: 20 µM [inhibitor, single point]	
COc1ccc(CC(=O)Nc2ccc(-c3nc4ccccc4s3)cc2Cl)cc1OC	inconclusive: 28.2 µM [inhibitor, partial curve, poor fit]	
CCN(CC)CCNC(=O)c1ccc2c(c1)NC(=O)C(CS(=O)(=O)Cc1ccc(F)cc1Cl)N2 (stereo unspecified)		inactive: -0.829%
COc1ccc(-c2ccc3c(N)c(C(=O)Nc4ccc(C)cc4C)sc3n2)cc1OC	inconclusive: 22.4 µM [inhibitor, single point]	
